# Where “and” joins values, the source holds several entries; their conditions need not be identical. Identical values can stand only once. The inconclusive results got no clear call from the source; some entries with a clear call stand among them for comparison. For some of these results: Where the call is inconclusive, the potency comes from a doubtful curve fit. Calls of active or inactive are those of the source. Unless noted, calls follow the shape of the dose curve; as a rule, active = well fitted curve in the direction sought with a large enough effect in the repeat runs; inconclusive = weak or mixed curves; inactive = no such curve, though single readings can be large; an effect the other way counts as inactive or inconclusive.
# Tests used:
# [1] = qHTS assay to identify small molecule antagonists of the progesterone receptor (PR) signaling pathway - cell viability counter screen (AID 1346798); also: nearly all actives have a fitted effect of over 50% in size; as to activity change, negative = cytotoxicity: % is scaled to controls: 0 for no effect and ±100 for the full control effect
# Procedure, shortened: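 In the same plates used for the beta-lactamase readout, cell viability of compound- and R5020-treated PR-UAS-bla HEK293T cells (16 hr, 37C) was assessed by CellTiter-Glo luminescence.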
# [2] = qHTS assay to identify small molecule antagonists of the TGF-beta/Smad signaling pathway (AID 1346924; active = well fitted inhibition curve with a large enough effect in the signal ratio in the repeat runs, not every such curve was filed as active; inconclusive = weak or mixed curves; the % refers to the signal ratio); conditions: SBE-bla HEK293T, TGF-beta/Smad reporter, beta-lactamase ratio; activity, negative = inhibition: at 76.8 µM (top of the series) unless noted
# Procedure, shortened: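 Read-out was FRET-substrate fluorescence (405 nm excitation; 460 and 530 nm emission) after 2 h at room temperature. Before that, cells carrying a Smad-binding-element beta-lactamase reporter in HEK 293T had been stimulated 5 h at 37 C with TGF-beta1 (0.25 ng/mL addition solution) in the presence of test compound.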
# [3] = Caspase-3/7 induction in CHO-K1 cells by small molecules, qHTS cell viability counter screen (AID 1346979); conditions: CellTiter-Fluor fluorescence, 17 h; activity change, negative = cytotoxicity: at 92.4 µM (top of the series); also: nearly all actives have a fitted effect of over 35% in size
# Procedure, shortened: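 Following a 5hr settling period, CHO-K1 cells at 1,500 per well received DMSO-dissolved compounds. Cell viability was quantified 16hr later by CellTiter-Fluor fluorescence, measured after 1hr with reagent at 37C.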
# [4] = Caspase-3/7 induction in HepG2 cells by small molecules, qHTS cell viability counter screen (AID 1346981); also: nearly all actives have a fitted effect of over 30% in size
# Procedure, shortened: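 Treatment of HepG2 cells with DMSO-delivered compounds ran 16 hr at 37 C following a 5-hr pre-incubation of 2,000 cells/well. CellTiter-Fluor fluorescence, read after 1 hr, served as the viability measure in a qHTS format.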
# [5] = target: Nuclear receptor subfamily 1 group I member 2 (Homo sapiens) (UniProt O75469); experiment: Human pregnane X receptor (PXR) activation by small molecules, qHTS assay (AID 1346985); also: nearly all actives have a fitted effect of over 40% in size; as to activation: % is scaled to controls: 0 for no effect and ±100 for the full control effect
# Procedure, shortened: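 DPX-2 cells (HepG2 co-transfected with a PXR response element and a CYP3A4-promoter luciferase construct) were seeded at 2,000 per well, rested 5 hr at 37C, then exposed to DMSO-dissolved compounds for 24 hr. Activation was read as luciferase luminescence.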
# [6] = target: Cytochrome P450 2D6 (Homo sapiens) (UniProt P10635); experiment: Cytochrome P450 Family 2 Subfamily D Member 6 (CYP2D6) small molecule antagonists: luciferase reporter qHTS assay (AID 1671196); also: nearly all actives have a fitted effect of over 50% in size
# Procedure, shortened: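 Chemicals tested for interference with CYP2D6 activity; proluciferin substrate, NADPH regeneration, 1 h at room temperature, luminescent detection.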
# [7] = target: Cytochrome P450 2C9 (Homo sapiens) (UniProt P11712); experiment: Cytochrome P450 Family 2 Subfamily C Member 9 (CYP2C9) small molecule antagonists: luciferase reporter qHTS assay (AID 1671198); also: nearly all actives have a fitted effect of over 50% in size
# Procedure, shortened: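 P450-Glo proluciferin substrate with CYP2C9 enzyme; 10 min RT preincubation, then NADPH regeneration 1 h at 37C; luciferin detection reagent 20 min RT, luminescence in relative luminescence units.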
# [8] = Human pregnane X receptor (PXR) small molecule agonists, qHTS cell viability counter screen (AID 1346977); also: nearly all actives have a fitted effect of over 50% in size
# Procedure, shortened: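 In each well, the PXR reporter HepG2 line was checked for viability: CellTiter-Fluor reagent added 23hr post-dosing, fluorescence read after 1hr incubation at 37C.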
# [9] = target: Nuclear receptor subfamily 1 group I member 2 (Homo sapiens) (UniProt O75469); experiment: CYP3A4 induction through human pregnane X receptor (PXR) by small molecules, qHTS assay (AID 1346984); also: nearly all actives have a fitted effect of over 40% in size
# Procedure, shortened: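 After 24 h at 37C with compound, DPX-2 cells (HepG2, co-transfected PXR response element and CYP3A4 promoter-luciferase) got 3uM final P450-Glo Luciferin-IPA for 3 h; One-Glo luminescence followed.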
# [10] = target: Nuclear receptor subfamily 1 group I member 2 (Homo sapiens) (UniProt O75469); experiment: Human pregnane X receptor (PXR) small molecule agonists, qHTS assay (AID 1346982); also: nearly all actives have a fitted effect of over 35% in size
# Procedure, shortened: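 Stable HepG2 line reporting PXR-mediated CYP3A4 expression via luciferase. Treatment: 24 hr with compounds in DMSO at 37 C. Detection: ONE-Glo luminescence.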
# [11] = qHTS assay to identify small molecule agonists of the progesterone receptor (PR) signaling pathway - cell viability counter screen (AID 1346799; calls by dose curve; also: nearly all actives have a fitted effect of over 45% in size)
# Procedure, shortened: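 Multiplexed viability read: CellTiter-Glo luminescence, 30 min RT, following LiveBLAzer FRET measurement on PR-UAS-bla HEK293T cells exposed to compounds 16 hr.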
# [12] = target: Cytochrome P450 2C19 (Homo sapiens) (UniProt P33261); experiment: Cytochrome P450 Family 2 Subfamily C Member 19 (CYP2C19) small molecule antagonists: luciferase reporter qHTS assay (AID 1671197); also: nearly all actives have a fitted effect of over 65% in size; as to activity change, negative = inhibition: % is scaled to controls: 0 for no effect and ±100 for the full control effect
# Procedure, shortened: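 First, compounds are pinned into enzyme-substrate mix and held 10 min at room temperature. Second, NADPH regeneration solution is added and plates incubate 1 h at 37C. Third, detection reagent is added and luminescence read after 20 min.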
# [13] = qHTS assay to identify small molecule antagonists of the TGF-beta/Smad signaling pathway - cell viability counter screen (AID 1346824); also: nearly all actives have a fitted effect of over 50% in size
# Procedure, shortened: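 SBE-bla HEK 293T cells, incubated overnight, then compound plus 0.25 ng/mL TGF-beta1 (stock added) for 5 hr at 37 C. Viability was read in the same wells by CellTiter-Glo luminescence after 30 min at room temperature.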
# [14] = qHTS assay to identify small molecule agonists of the TGF-beta/Smad signaling pathway (AID 1346859; active = well fitted activation curve with a large enough effect in the signal ratio in the repeat runs, not every such curve was filed as active; inconclusive = weak or mixed curves; the % refers to the signal ratio; as to activation: % is scaled to controls: 0 for no effect and ±100 for the full control effect); conditions: SBE-bla HEK293T, TGF-beta/Smad beta-lactamase reporter, 5 h; activation: at 76.8 µM (top of the series)
# Procedure, shortened: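 Screening used HEK 293T SBE-bla cells at 4,000/well. Test agents: 5 hr, 37 C. Detection: FRET substrate, 2 hr RT, then excitation 405 nm with emissions at 460 and 530 nm.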
# Potency is read from the fitted curve at half-maximal effect; tags tell the direction and shape of the fitted curve or compound fluorescence and quenching.
# UniProt P10635, sequence (P10635 whole entry, looked up): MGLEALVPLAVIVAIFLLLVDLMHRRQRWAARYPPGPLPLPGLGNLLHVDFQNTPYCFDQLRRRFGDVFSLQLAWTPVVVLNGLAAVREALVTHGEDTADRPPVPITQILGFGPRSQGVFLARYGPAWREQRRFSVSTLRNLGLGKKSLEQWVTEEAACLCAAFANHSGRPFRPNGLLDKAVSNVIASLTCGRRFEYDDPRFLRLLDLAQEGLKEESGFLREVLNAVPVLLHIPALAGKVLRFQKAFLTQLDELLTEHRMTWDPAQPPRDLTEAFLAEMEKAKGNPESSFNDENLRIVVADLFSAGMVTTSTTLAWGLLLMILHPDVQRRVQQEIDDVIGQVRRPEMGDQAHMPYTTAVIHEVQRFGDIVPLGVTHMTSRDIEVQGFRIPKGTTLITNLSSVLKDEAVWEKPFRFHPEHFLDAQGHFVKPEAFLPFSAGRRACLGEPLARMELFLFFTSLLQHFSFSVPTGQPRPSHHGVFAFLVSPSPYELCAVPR
# UniProt P33261, sequence (P33261 whole entry, looked up): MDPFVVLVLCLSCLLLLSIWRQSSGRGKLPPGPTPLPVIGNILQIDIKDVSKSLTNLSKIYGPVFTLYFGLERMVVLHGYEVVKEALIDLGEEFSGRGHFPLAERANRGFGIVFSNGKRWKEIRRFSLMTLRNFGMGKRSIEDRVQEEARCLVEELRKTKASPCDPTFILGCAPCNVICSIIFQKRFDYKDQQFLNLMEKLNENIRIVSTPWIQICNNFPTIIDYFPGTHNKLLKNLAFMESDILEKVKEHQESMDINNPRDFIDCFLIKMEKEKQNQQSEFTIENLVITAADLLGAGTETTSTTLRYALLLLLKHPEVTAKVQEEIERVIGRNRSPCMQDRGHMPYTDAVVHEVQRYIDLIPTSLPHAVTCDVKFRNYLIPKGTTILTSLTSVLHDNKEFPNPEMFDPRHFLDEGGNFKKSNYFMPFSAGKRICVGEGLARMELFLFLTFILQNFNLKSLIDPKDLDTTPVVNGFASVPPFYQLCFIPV
# UniProt P11712, sequence (P11712 whole entry, looked up): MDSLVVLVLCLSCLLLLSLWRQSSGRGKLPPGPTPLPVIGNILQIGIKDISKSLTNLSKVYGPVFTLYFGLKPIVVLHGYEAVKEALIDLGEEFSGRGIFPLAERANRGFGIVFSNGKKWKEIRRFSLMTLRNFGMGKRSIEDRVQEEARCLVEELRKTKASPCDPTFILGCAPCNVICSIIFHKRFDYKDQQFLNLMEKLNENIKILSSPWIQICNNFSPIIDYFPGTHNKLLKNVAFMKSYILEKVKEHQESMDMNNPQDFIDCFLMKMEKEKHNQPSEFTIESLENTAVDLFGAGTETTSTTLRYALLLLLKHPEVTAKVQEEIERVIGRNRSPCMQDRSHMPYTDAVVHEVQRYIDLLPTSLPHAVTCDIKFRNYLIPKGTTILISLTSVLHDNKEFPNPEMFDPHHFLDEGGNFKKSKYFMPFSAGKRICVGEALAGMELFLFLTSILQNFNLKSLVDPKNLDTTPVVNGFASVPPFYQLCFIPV
# UniProt O75469, sequence (O75469 whole entry, looked up): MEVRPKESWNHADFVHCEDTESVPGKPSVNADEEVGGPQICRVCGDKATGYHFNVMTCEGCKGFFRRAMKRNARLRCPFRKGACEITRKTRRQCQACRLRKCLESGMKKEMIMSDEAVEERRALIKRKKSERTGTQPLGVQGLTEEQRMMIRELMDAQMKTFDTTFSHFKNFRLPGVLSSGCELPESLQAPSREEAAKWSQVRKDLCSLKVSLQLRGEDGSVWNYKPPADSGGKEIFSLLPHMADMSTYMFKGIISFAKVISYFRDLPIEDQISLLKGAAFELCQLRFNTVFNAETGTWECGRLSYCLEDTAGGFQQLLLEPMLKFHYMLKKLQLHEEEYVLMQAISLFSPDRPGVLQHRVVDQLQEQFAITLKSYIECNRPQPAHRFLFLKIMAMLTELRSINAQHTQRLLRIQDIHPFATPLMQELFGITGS
smiles,measurement,setting,value
Oc1cccc(O)c1O,Potency,[1],inactive
same,"activity, negative = inhibition",[2],inconclusive: -2.9%
same,Potency,[3],"inconclusive: 68 µM [cytotoxic, single point]"
same,Potency,[4],"inconclusive: 68 µM [cytotoxic, single point]"
same,Potency,[5],inactive
same,Potency,[6],"inconclusive: 31.4 µM [inhibitor, partial curve]"
same,Potency,[7],"inconclusive: 39.6 µM [inhibitor, partial curve]"
CC(C)(Cc1c[nH]c2ccccc12)NCC(O)COc1ccccc1C#N (centres undefined),Potency,[1],"inconclusive: 2.98 µM [cytotoxic, single point]"
same,Potency,[8],"inconclusive: 26.6 µM [cytotoxic, partial curve]"
same,Potency,[9],active: 12.6 µM
same,Potency,[5],active: 28.2 µM
same,Potency,[7],"inconclusive: 27.5 µM [inhibitor, partial curve, poor fit]"
CCc1oc2ccccc2c1C(=O)c1cc(Br)c(O)c(Br)c1,Potency,[1],"inconclusive: 9.44 µM [cytotoxic, partial curve, poor fit]"
same,Potency,[8],"inconclusive: 33.5 µM [cytotoxic, single point]"
COc1cc(C(=O)OCCCN2CCCN(CCCOC(=O)c3cc(OC)c(OC)c(OC)c3)CC2)cc(OC)c1OC,Potency,[1],inactive
same,Potency,[8],"inconclusive: 33.5 µM [cytotoxic, single point]"
same,Potency,[3],active: 23.7 µM
same,Potency,[4],active: 26.6 µM
same,Potency,[10],active: 29.8 µM
C=CCCCCCCCCC=O,Potency,[1],"inconclusive: 1.37 µM [cytotoxic, single point]"
same,Potency,[11],"inconclusive: 68.6 µM [cytotoxic, single point]"
same,Potency,[12],active: 79.6 µM
Cc1ccc2c(c1[N+](=O)[O-])C(=O)c1ccccc1C2=O,Potency,[1],inactive
same,Potency,[13],"inconclusive: 2.7 µM [cytotoxic, single point]"
same,Potency,[14],inactive
same,Potency,[3],"inconclusive: 26.8 µM [cytotoxic, partial curve]"
CCCCN1CCCC[C@H]1C(=O)Nc1c(C)cccc1C,Potency,[1],"inconclusive: 2.98 µM [cytotoxic, single point]"
same,Potency,[11],"inconclusive: 11.9 µM [cytotoxic, partial curve]"
same,Potency,[12],inactive
CC(=O)Oc1c(C)c(C)c2c(c1C)CC[C@@](C)(CCC[C@H](C)CCC[C@H](C)CCCC(C)C)O2,Potency,[1],"inconclusive: 6.11 µM [rising, full curve, poor fit]"
same,Potency,[11],inactive
same,Potency,[6],inactive
same,Potency,[7],inactive
CC(C)[N+](C)(CCOC(=O)C1c2ccccc2Oc2ccccc21)C(C)C,Potency,[1],"inconclusive: 77 µM [rising, single point]"
same,"activity, negative = inhibition",[2],inconclusive: -11.3%
same,Potency,[3],"inconclusive: 29.8 µM [rising, partial curve]"
same,Potency,[10],"inconclusive: 7.7 µM [activator, partial curve]"
same,Potency,[6],active: 100 nM and active: 195 nM
COc1cc([C@H]2Oc3cc([C@H]4Oc5cc(O)cc(O)c5C(=O)[C@@H]4O)ccc3O[C@@H]2CO)ccc1O,Potency,[1],"inconclusive: 43.1 µM [rising, partial curve]"
same,Potency,[2],"inconclusive: 24.5 µM [rising, partial curve]"
same,"activity, negative = inhibition",[2],inconclusive: 0.0061% [at 35.3 µM]
same,Potency,[5],inactive
same,Potency,[12],"inconclusive: 89.1 µM [inhibitor, single point]"
CC(=O)c1ccc(C(C)=O)cc1,Potency,[1],"inconclusive: 39.5 µM [rising, single point]"
same,Potency,[14],inactive
CCCCCCCCCCCCCCCO,Potency,[1],inactive
same,Potency,[2],"inconclusive: 22.1 µM [rising, full curve]"
same,Potency,[8],"inconclusive: 17.8 µM [cytotoxic, partial curve]"
same,Potency,[7],"inconclusive: 20 µM [inhibitor, full curve, poor fit]"
CC(=O)NNC(C)=O,Potency,[1],"inconclusive: 70.5 µM [rising, single point]"
same,Potency,[13],inactive
same,Potency,[3],inactive
O=C(O)CN(CCN(CC(=O)O)CC(=O)O)CCN(CC(=O)O)CC(=O)O,Potency,[1],"inconclusive: 6.51 µM [cytotoxic, partial curve, poor fit]"
same,Potency,[8],"inconclusive: 1.64 µM [cytotoxic, full curve]"
same,Potency,[4],"inconclusive: 8.2 µM [cytotoxic, partial curve, poor fit]"
same,"activity change, negative = inhibition",[6],inactive: -5.69% [at 23.6 µM]
O=C(O)c1cc(-c2ccccc2)nc2ccccc12,Potency,[1],"inconclusive: 0.0874 µM [rising, full curve, poor fit]"
same,Potency,[14],"inconclusive: 21.9 µM [rising, partial curve]"
same,Potency,[2],"inconclusive: 31.3 µM [fluorescent, partial curve, poor fit]"
same,Potency,[3],"inconclusive: 69.4 µM [cytotoxic, single point]"
same,Potency,[4],inconclusive: 27.6 µM
same,Potency,[10],inconclusive: 31 µM [activator]
same,Potency,[6],"inconclusive: 71.8 µM [inhibitor] and inconclusive: 34.7 µM [inhibitor, partial curve]"
same,Potency,[7],"inconclusive: 27.5 µM [inhibitor, partial curve]"

# From PubChem BioAssay (Tox21)
